Assay results as given in the supplement of paper PMC8728848.
Some of the results follow.

Key:
Assay in all cases: glycan array binding signal (z-score within array); higher = stronger binding
Details in all cases: glycan notation: IUPAC condensed, linker removed
[1] = target: Gal(b1-3)GlcNAc(b1-6)GalNAc
In short: (§1)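 The Consortium for Functional Glycomics database supplied 3228 glycan arrays, of which those lacking an available protein sequence were dropped. The binding signal, a within-array Z-score, was averaged across arrays of the same protein sequence and across linkers. Negative scores can be read as non-binding.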

[2] = target: Gal(b1-3)GlcNAc(b1-6)[Gal(b1-3)]GalNAc
In short: as §1

Gal(b1-3)GlcNAc6S = target: Gal(b1-3)GlcNAc6S
In short: as §1

[3] = target: Gal(b1-3)[Fuc(a1-4)]GlcNAc
In short: as §1

[4] = target: Gal(b1-3)[Fuc(a1-4)]GlcNAc(b1-2)Man
In short: as §1

[5] = target: Gal(b1-3)[Fuc(a1-4)]GlcNAc(b1-2)Man(a1-3)[Gal(b1-3)[Fuc(a1-4)]GlcNAc(b1-2)Man(a1-6)]Man(b1-4)GlcNAc(b1-4)[Fuc(a1-6)]GlcNAc
In short: as §1

[6] = target: Gal(b1-3)[Fuc(a1-4)]GlcNAc(b1-3)Gal(b1-3)[Fuc(a1-4)]GlcNAc
In short: as §1

[7] = target: Gal(b1-3)[Fuc(a1-4)]GlcNAc(b1-3)Gal(b1-4)[Fuc(a1-3)]GlcNAc
In short: as §1

[8] = target: Gal(b1-3)[Fuc(a1-4)]GlcNAc(b1-6)GalNAc
In short: as §1

[9] = target: Gal(b1-3)[GlcNAc(b1-6)]GalNAc
In short: as §1

[10] = target: Gal(b1-3)[Neu5Ac(a2-6)]GalNAc
In short: as §1

[11] = target: Gal(b1-3)[Neu5Ac(a2-6)]GlcNAc(b1-4)Gal(b1-4)Glc
In short: as §1

[12] = target: Gal(b1-3)[Neu5Ac(b2-6)]GalNAc
In short: as §1

Gal(b1-4)Gal = target: Gal(b1-4)Gal
In short: as §1

[13] = target: Gal(b1-4)GalNAc(a1-3)[Fuc(a1-2)]Gal(b1-4)GlcNAc
In short: as §1

[14] = target: Gal(b1-4)GalNAc(b1-3)[Fuc(a1-2)]Gal(b1-4)GlcNAc
In short: as §1

Gal(b1-4)Glc = target: Gal(b1-4)Glc
In short: as §1

Gal(b1-4)Glc6S = target: Gal(b1-4)Glc6S
In short: as §1

Gal(b1-4)GlcNAc = target: Gal(b1-4)GlcNAc
In short: as §1

[15] = target: Gal(b1-4)GlcNAc(a1-6)Gal(b1-4)GlcNAc
In short: as §1

Gal(b1-4)GlcNAc(b1-2)Man = target: Gal(b1-4)GlcNAc(b1-2)Man
In short: as §1

[16] = target: Gal(b1-4)GlcNAc(b1-2)Man(a1-3)Man(b1-4)GlcNAc(b1-4)GlcNAc
In short: as §1

[17] = target: Gal(b1-4)GlcNAc(b1-2)Man(a1-3)[Gal(b1-4)GlcNAc(b1-2)Man(a1-6)]Man(b1-4)GlcNAc(b1-4)GlcNAc
In short: as §1

[18] = target: Gal(b1-4)GlcNAc(b1-2)Man(a1-3)[Gal(b1-4)GlcNAc(b1-2)Man(a1-6)]Man(b1-4)GlcNAc(b1-4)[Fuc(a1-6)]GlcNAc
In short: as §1

[19] = target: Gal(b1-4)GlcNAc(b1-2)Man(a1-3)[Gal(b1-4)GlcNAc(b1-2)Man(a1-6)][Gal(b1-4)GlcNAc(b1-4)]Man(b1-4)GlcNAc(b1-4)[Fuc(a1-6)]GlcNAc
In short: as §1

[20] = target: Gal(b1-4)GlcNAc(b1-2)Man(a1-3)[Gal(b1-4)GlcNAc(b1-2)Man(a1-6)][GlcNAc(b1-4)]Man(b1-4)GlcNAc(b1-4)[Fuc(a1-6)]GlcNAc
In short: as §1

[21] = target: Gal(b1-4)GlcNAc(b1-2)Man(a1-3)[GlcNAc(b1-2)Man(a1-6)]Man(b1-4)GlcNAc(b1-4)GlcNAc
In short: as §1

[22] = target: Gal(b1-4)GlcNAc(b1-2)Man(a1-3)[GlcNAc(b1-4)][Gal(b1-4)GlcNAc(b1-2)Man(a1-6)]Man(b1-4)GlcNAc(b1-4)GlcNAc
In short: as §1

[23] = target: Gal(b1-4)GlcNAc(b1-2)Man(a1-3)[Man(a1-6)]Man(b1-4)GlcNAc(b1-4)GlcNAc
In short: as §1

[24] = target: Gal(b1-4)GlcNAc(b1-2)Man(a1-6)Man(b1-4)GlcNAc(b1-4)GlcNAc
In short: as §1

[25] = target: Gal(b1-4)GlcNAc(b1-2)Man(a1-6)[GlcNAc(b1-2)Man(a1-3)]Man(b1-4)GlcNAc(b1-4)GlcNAc
In short: as §1

[26] = target: Gal(b1-4)GlcNAc(b1-2)Man(a1-6)[Man(a1-3)]Man(b1-4)GlcNAc(b1-4)GlcNAc
In short: as §1

[27] = target: Gal(b1-4)GlcNAc(b1-2)[Gal(b1-4)GlcNAc(b1-4)]Man(a1-3)[Gal(b1-4)GlcNAc(b1-2)Man(a1-6)]Man(b1-4)GlcNAc(b1-4)GlcNAc
In short: as §1

[28] = target: Gal(b1-4)GlcNAc(b1-2)[Gal(b1-4)GlcNAc(b1-4)]Man(a1-3)[Gal(b1-4)GlcNAc(b1-2)[Gal(b1-4)GlcNAc(b1-6)]Man(a1-6)]Man(b1-4)GlcNAc(b1-4)GlcNAc
In short: as §1

[29] = target: Gal(b1-4)GlcNAc(b1-2)[Gal(b1-4)GlcNAc(b1-4)]Man(a1-3)[GlcNAc(b1-4)][Gal(b1-4)GlcNAc(b1-2)Man(a1-6)]Man(b1-4)GlcNAc(b1-4)GlcNAc
In short: as §1

[30] = target: Gal(b1-4)GlcNAc(b1-2)[Gal(b1-4)GlcNAc(b1-4)]Man(a1-3)[GlcNAc(b1-4)][Gal(b1-4)GlcNAc(b1-2)[Gal(b1-4)GlcNAc(b1-6)]Man(a1-6)]Man(b1-4)GlcNAc(b1-4)GlcNAc
In short: as §1

[31] = target: Gal(b1-4)GlcNAc(b1-2)[Gal(b1-4)GlcNAc(b1-6)]Man(a1-6)[Gal(b1-4)GlcNAc(b1-2)Man(a1-3)]Man(b1-4)GlcNAc(b1-4)GlcNAc
In short: as §1

[32] = target: Gal(b1-4)GlcNAc(b1-2)[Gal(b1-4)GlcNAc(b1-6)]Man(a1-6)[Gal(b1-4)GlcNAc(b1-2)Man(a1-3)]Man(b1-4)GlcNAc(b1-4)[Fuc(a1-6)]GlcNAc
In short: as §1

[33] = target: Gal(b1-4)GlcNAc(b1-2)[Gal(b1-4)GlcNAc(b1-6)]Man(a1-6)[GlcNAc(b1-4)][Gal(b1-4)GlcNAc(b1-2)Man(a1-3)]Man(b1-4)GlcNAc(b1-4)GlcNAc
In short: as §1

[34] = target: Gal(b1-4)GlcNAc(b1-2)[Gal(b1-4)GlcNAc(b1-6)]Man(a1-6)[GlcNAc(b1-4)][Gal(b1-4)GlcNAc(b1-2)[Gal(b1-4)GlcNAc(b1-4)]Man(a1-3)]Man(b1-4)GlcNAc(b1-4)[Fuc(a1-6)]GlcNAc
In short: as §1

[35] = target: Gal(b1-4)GlcNAc(b1-3)Gal(b1-3)GalNAc
In short: as §1

[36] = target: Gal(b1-4)GlcNAc(b1-3)Gal(b1-3)GlcNAc
In short: as §1

[37] = target: Gal(b1-4)GlcNAc(b1-3)Gal(b1-4)Glc
In short: as §1

[38] = target: Gal(b1-4)GlcNAc(b1-3)Gal(b1-4)GlcNAc
In short: as §1

[39] = target: Gal(b1-4)GlcNAc(b1-3)Gal(b1-4)GlcNAc(b1-2)Man(a1-3)[Gal(b1-4)GlcNAc(b1-3)Gal(b1-4)GlcNAc(b1-2)Man(a1-6)]Man(b1-4)GlcNAc(b1-4)GlcNAc
In short: as §1

B1: VLRB.aGPA.23-GCN4-biotin (Petromyzon marinus) (protein)
chain: ACPSQCSCSGTEVNCAGKSLASVPAGIPTTTRVLYLNSNQITKLEPGVFDRLANLRELHLWGNQLVSLPPGVFDNLANLEKLWLNSNQLTSLPAGLFDRLVNLEHLGLCCMKLTELPSGAFDKLTRLKQLGLDQNQLKSIPDGAFARLPSLTHVWLHTNPWDCQCTDILYLSGWVAQHSSIVGEGWPWRHSPDSAKCSGTNTPVRAVTEASTSPSKCP
Q: Which “glycan array binding signal (z-score)” value [1] does the source give for B1 here?
A: -0.081

Q: What about the “glycan array binding signal (z-score)” value [2] of the same binder?
A: -0.076

Q: What about the “glycan array binding signal (z-score)” value (Gal(b1-3)GlcNAc6S) of the same binder?
A: -0.09

Q: What about the “glycan array binding signal (z-score)” value [3] of the same binder?
A: -0.081

Q: What about the “glycan array binding signal (z-score)” value [4] of the same binder?
A: -0.066

Q: And the “glycan array binding signal (z-score)” value [5]?
A: -0.082

Q: And the “glycan array binding signal (z-score)” value [6]?
A: -0.079

Q: What about the “glycan array binding signal (z-score)” value [7] of the same binder?
A: -0.081

Q: What about the “glycan array binding signal (z-score)” value [8] of the same binder?
A: -0.066

Q: What about the “glycan array binding signal (z-score)” value [9] of the same binder?
A: -0.079

Q: And the “glycan array binding signal (z-score)” value [10]?
A: -0.079

Q: What about the “glycan array binding signal (z-score)” value [11] of the same binder?
A: -0.08

Q: What about the “glycan array binding signal (z-score)” value [12] of the same binder?
A: -0.082

Q: What about the “glycan array binding signal (z-score)” value (Gal(b1-4)Gal) of the same binder?
A: -0.084

Q: And the “glycan array binding signal (z-score)” value [13]?
A: -0.087

Q: And the “glycan array binding signal (z-score)” value [14]?
A: -0.086

Q: And the “glycan array binding signal (z-score)” value (Gal(b1-4)Glc)?
A: -0.079

Q: What about the “glycan array binding signal (z-score)” value (Gal(b1-4)Glc6S) of the same binder?
A: -0.078

Q: And the “glycan array binding signal (z-score)” value (Gal(b1-4)GlcNAc)?
A: -0.077

Q: What about the “glycan array binding signal (z-score)” value [15] of the same binder?
A: -0.077

Q: What about the “glycan array binding signal (z-score)” value (Gal(b1-4)GlcNAc(b1-2)Man) of the same binder?
A: -0.077

Q: And the “glycan array binding signal (z-score)” value [16]?
A: -0.08

Q: What about the “glycan array binding signal (z-score)” value [17] of the same binder?
A: -0.084

Q: And the “glycan array binding signal (z-score)” value [18]?
A: -0.075

Q: And the “glycan array binding signal (z-score)” value [19]?
A: -0.086

Q: What about the “glycan array binding signal (z-score)” value [20] of the same binder?
A: -0.081

Q: And the “glycan array binding signal (z-score)” value [21]?
A: -0.082

Q: And the “glycan array binding signal (z-score)” value [22]?
A: -0.083

Q: What about the “glycan array binding signal (z-score)” value [23] of the same binder?
A: -0.076

Q: And the “glycan array binding signal (z-score)” value [24]?
A: -0.082

Q: What about the “glycan array binding signal (z-score)” value [25] of the same binder?
A: -0.087

Q: What about the “glycan array binding signal (z-score)” value [26] of the same binder?
A: -0.084

Q: And the “glycan array binding signal (z-score)” value [27]?
A: -0.08

Q: What about the “glycan array binding signal (z-score)” value [28] of the same binder?
A: -0.084

Q: And the “glycan array binding signal (z-score)” value [29]?
A: -0.083

Q: And the “glycan array binding signal (z-score)” value [30]?
A: -0.083

Q: And the “glycan array binding signal (z-score)” value [31]?
A: -0.063

Q: And the “glycan array binding signal (z-score)” value [32]?
A: -0.068

Q: What about the “glycan array binding signal (z-score)” value [33] of the same binder?
A: -0.083

Q: And the “glycan array binding signal (z-score)” value [34]?
A: -0.076

Q: What about the “glycan array binding signal (z-score)” value [35] of the same binder?
A: -0.084

Q: What about the “glycan array binding signal (z-score)” value [36] of the same binder?
A: -0.071

Q: And the “glycan array binding signal (z-score)” value [37]?
A: -0.073

Q: What about the “glycan array binding signal (z-score)” value [38] of the same binder?
A: -0.079

Q: And the “glycan array binding signal (z-score)” value [39]?
A: -0.029
